This note sets out measurements from the supplement of paper PMC10369915.

The labels stand for the following.
B1: CLEC12A_Y242 (peptide)
chain: YYHCTYKKRMI
B2: CLNS1A_Y214_M218T (peptide)
chain: DSIRDYEDGTE
B3: CLK1_Y305_YF (peptide)
chain: DFTEAYNPKIK
B4: CLDN14_Y233_G232R_YF (peptide)
chain: ATHSRYRLNDF
B5: CLOCK_Y378 (peptide)
chain: HTVVSYAEVRA
B6: CKM_Y125 (peptide)
chain: DLDPNYVLSSR
B7: CHST6_Y358_Y358H (peptide)
chain: LQLLGHRPVYS
B8: CLCA1_Y661_Y661H_YF (peptide)
chain: GVFSRHFTTFD
B9: CKAP5_Y1854_K1857Q (peptide)
chain: GLAELYEYQKK
B10: CKB_Y173_YF (peptide)
chain: DLAGRYFALKS
B11: CLDN14_Y233_G232R (peptide)
chain: ATHSRYRLNDY
B12: CLNK_Y69 (peptide)
chain: HSDDDYDDPEL
B13: CKAP5_Y1854_YF (peptide)
chain: GLAELYEFKKK
B14: CLIC5_Y111_T114A (peptide)
chain: SMEGLYSSAQD
B15: CKAP5_Y1854_K1857Q_YF (peptide)
chain: GLAELYEFQKK
B16: CLSPN_Y887_P892T (peptide)
chain: NHRNQYQALKT
B17: CLRN1_Y171 (peptide)
chain: EKIANYKEGTY
B18: CLK1_Y305 (peptide)
chain: DYTEAYNPKIK
B19: CLEC12A_Y242_YF (peptide)
chain: FFHCTYKKRMI

The list shows a part of the results. Cut-off read from the data, not from the text of the source: active = 3.2 or more and inactive = the rest. The signal is at background level for most entries.
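Note: displayed peptides selected on beads carrying the immobilized SH2 domain, with library peptides lacking any tyrosine serving as negative controls.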

In one experiment the target is SHP2 C-SH2 domain E139D. Nature of the experiment: enrichment score (SH2-bound / input frequency) (ratio); bacterial display of known human phosphotyrosine sites (pTyr-Var adds point mutants) read by sequencing; higher = stronger binding; tyrosines were phosphorylated by kinases first. As to conditions: peptide library: pTyr-Var.
For B1, the enrichment score was inactive: 2.25.

For the molecule B2, the enrichment score is inactive: 0.405.

Regarding B3, the enrichment score is inactive: 0.703.

For the molecule B4, the enrichment score is inactive: 0.972.

Take B5: the enrichment score is inactive: 2.12.

For the molecule B6, the enrichment score is inactive: 0.717.

As to B7, the enrichment score was inactive: 1.51.

For the molecule B8, the enrichment score is inactive: 0.518.

Regarding B9, the enrichment score is inactive: 1.32.

Turning to B10, the enrichment score is inactive: 0.971.

As for B11, the enrichment score was inactive: 0.963.

Take B12: the enrichment score is inactive: 0.458.

As for B13, the enrichment score was inactive: 0.78.

With B14, the enrichment score was inactive: 0.889.

Take B15: the enrichment score is inactive: 0.991.

On to B16, for which the enrichment score was inactive: 1.17.

On to B17, for which the enrichment score was inactive: 0.566.

For B18, the enrichment score is inactive: 0.638.

For B19, the enrichment score was inactive: 2.62.

In a further experiment the target is SHP2 C-SH2 domain wild-type. The experiment is described as above. Conditions: peptide library: pTyr-Var.
Consider B1, for which the enrichment score is inactive: 2.36.

As for B2, the enrichment score is inactive: 0.452.

On to B3, for which the enrichment score was inactive: 0.697.

Take B4: the enrichment score is inactive: 0.864.

Regarding B5, the enrichment score is active: 3.48.

As for B6, the enrichment score is inactive: 0.692.

On to B7, for which the enrichment score is inactive: 1.08.

With B8, the enrichment score was inactive: 2.48.

For B9, the enrichment score is inactive: 1.18.

For the molecule B10, the enrichment score is inactive: 0.939.

B11: the enrichment score was inactive: 0.872.

As to B12, the enrichment score was inactive: 0.401.

As for B13, the enrichment score is inactive: 0.496.

As to B14, the enrichment score is inactive: 0.874.

For B15, the enrichment score is inactive: 0.571.

In the case of B16, the enrichment score is inactive: 0.872.

For B17, the enrichment score was inactive: 0.524.

Take B18: the enrichment score is inactive: 0.571.

As for B19, the enrichment score is inactive: 2.6.

The target in a further experiment is SHP2 N-SH2 domain L43F. The description is as above. Conditions: peptide library: pTyr-Var.
For B1, the enrichment score is inactive: 2.3.

As for B2, the enrichment score is inactive: 0.554.

For B3, the enrichment score was inactive: 0.752.

Consider B4, for which the enrichment score is inactive: 1.05.

On to B5, for which the enrichment score was active: 3.49.

Take B6: the enrichment score was inactive: 0.853.

Take B7: the enrichment score is inactive: 1.39.

As to B8, the enrichment score is inactive: 0.497.

On to B9, for which the enrichment score is inactive: 1.11.

In the case of B10, the enrichment score is inactive: 0.977.

As for B11, the enrichment score was inactive: 0.901.

In the case of B12, the enrichment score was inactive: 0.41.

In the case of B13, the enrichment score was inactive: 0.573.

On to B14, for which the enrichment score is inactive: 0.847.

With B15, the enrichment score was inactive: 0.725.

As for B16, the enrichment score is inactive: 0.869.

Turning to B17, the enrichment score is inactive: 0.607.

Consider B18, for which the enrichment score was inactive: 0.579.

Regarding B19, the enrichment score is inactive: 2.17.

The next experiment deals with SHP2 N-SH2 domain T42A. Described as above. As to conditions: peptide library: pTyr-Var.
B1: the enrichment score is inactive: 2.06.

Consider B2, for which the enrichment score is inactive: 0.39.

As for B3, the enrichment score was inactive: 0.457.

Take B4: the enrichment score was inactive: 0.602.

B5: the enrichment score was active: 6.57.

As to B6, the enrichment score is inactive: 0.569.

For B7, the enrichment score is inactive: 1.13.

For the molecule B8, the enrichment score was inactive: 1.91.

Consider B9, for which the enrichment score was inactive: 0.793.

In the case of B10, the enrichment score is inactive: 0.797.

Regarding B11, the enrichment score was inactive: 1.2.

Regarding B12, the enrichment score is inactive: 0.456.

Take B13: the enrichment score is inactive: 0.607.

On to B14, for which the enrichment score is inactive: 0.807.

On to B15, for which the enrichment score was inactive: 0.41.

As to B16, the enrichment score was inactive: 0.858.

Turning to B17, the enrichment score is inactive: 0.506.

Take B18: the enrichment score was inactive: 0.475.

On to B19, for which the enrichment score was inactive: 2.17.

The next experiment addresses SHP2 N-SH2 domain T52S. The description is as above. Conditions: peptide library: pTyr-Var.
For the molecule B1, the enrichment score is inactive: 2.21.

For the molecule B2, the enrichment score is inactive: 0.495.

With B3, the enrichment score is inactive: 0.569.

For the molecule B4, the enrichment score was inactive: 0.855.

As to B5, the enrichment score is active: 3.6.

Turning to B6, the enrichment score is inactive: 0.734.

With B7, the enrichment score was inactive: 1.58.

Consider B8, for which the enrichment score is inactive: 2.49.

With B9, the enrichment score was inactive: 1.17.

In the case of B10, the enrichment score is inactive: 0.812.

As to B11, the enrichment score was inactive: 0.812.

Consider B12, for which the enrichment score is inactive: 0.418.

With B13, the enrichment score was inactive: 0.581.

Consider B14, for which the enrichment score is inactive: 0.872.

As for B15, the enrichment score was inactive: 0.883.

Take B16: the enrichment score is inactive: 0.957.

For B17, the enrichment score is inactive: 0.551.

As to B18, the enrichment score is inactive: 0.903.

In the case of B19, the enrichment score was inactive: 1.9.

For another experiment, the target named is SHP2 N-SH2 domain wild-type. The description is as above. As to conditions: peptide library: pTyr-Var.
On to B1, for which the enrichment score is inactive: 2.44.

Regarding B2, the enrichment score was inactive: 0.523.

As for B3, the enrichment score was inactive: 0.539.

Turning to B4, the enrichment score was inactive: 0.87.

With B5, the enrichment score was inactive: 1.8.

In the case of B6, the enrichment score is inactive: 0.981.

Consider B7, for which the enrichment score was inactive: 1.29.

Regarding B9, the enrichment score was inactive: 1.44.

For B10, the enrichment score was inactive: 0.901.

Regarding B11, the enrichment score is inactive: 0.955.

As for B12, the enrichment score is inactive: 0.499.

Consider B13, for which the enrichment score was inactive: 0.807.

Regarding B14, the enrichment score is inactive: 0.939.

B15: the enrichment score is inactive: 0.688.

For the molecule B16, the enrichment score is inactive: 0.87.

As for B17, the enrichment score was inactive: 0.577.

Regarding B18, the enrichment score is inactive: 0.695.

On to B19, for which the enrichment score is inactive: 2.1.
